# Measured values from the supplement of paper PMC11417369.
# ± gives the standard deviation of the averaged measurements. The list shows a part of the results.
# Tested on: PfAP2-G AP2 domain (GST-tagged)
# Assay: gcPBM binding intensity (ln(normalized median fluorescence intensity)); higher = stronger DNA binding
# Method in brief: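 DNA-binding domains from P. falciparum, fused to GST and produced in E. coli, were put on an Agilent 4 × 180k double-stranded probe array for 1 h in 1× PBS holding 1% milk, 0.2 mg/ml BSA, 0.5% salmon testes DNA and 0.03% Triton X-100. Probes were primer-extended, 36 bp long and drawn from intergenic genomic regions, with negative controls included. After Alexa488 anti-GST antibody detection and a 488 nm scan, binding intensity was set as the highest Masliner-normalised natural-log median intensity across replicate spots of either probe orientation.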
row,Sequence,gcPBM binding intensity (ln)
1,AATAATAGAAGCACCCACCCACCACCACCCACACAT [CACACA_negctrl_site1033],10.9 ± 0.33
2,ACGATGAATATGTAAAGTACGCAAATGTAACAATAT [XGTACX_site728],11.4 ± 0.78
3,CATATATATTGATATGCACACCTATGTATTGATGTA [CACACA_site8269],10.1 ± 0.14
4,AGCATTTTTCATTTTGCACACATGTTTTATGGGTAT [CACACA_site5839],10.11 ± 0.078
5,TCTTTTTTCTTTTTTTCACACATTATTTTTTAAATA [CACACA_site5197],9.95 ± 0.071
6,GTAGTTACATATAGGGTGCTCCAATAGTTGACCTCG,10.3 ± 0.21
7,TCATAGGTTCAAAAGGGTACATTAATACATACATAT [XGTACX_site2236],11.1 ± 0.57
8,AAATAAAAAAAGGGAACATGCAATATGTACAAATAT [TGCATGCA_site869],11.2 ± 0.64
9,ATTTTTTATGTTAATGCATGCTCATGTGTATTTCAT [TGCATGCA_site751],10.1 ± 0.16
10,TTATCTTTTTTCGTTTGTACGTAACCATATTACTAT [XGTACX_site8853],11.4 ± 0.86
11,AAATATAACATCATCACACACATATACTTTATATGC [CACACA_site1126],9.8 ± 0.057
12,AGCTTCATATTATGGAGTACTATTAAAAATAAATAA [XGTACX_site2649],11.3 ± 0.83
13,AGATATTATAAAATATGTACATATATATATATATAT [XGTACX_site2088],11.3 ± 0.78
14,TAATTAGATTATTTTTGTACATATTATTATAGGTTA [XGTACX_site2077],10.8 ± 0.47
15,AAAGTAATAATGATTTGTACATATATATATATATAT [XGTACX_site8821],10.7 ± 0.49
16,ATGCAAATGTGCATCACACACACTAATGGGTATGTA [CACACA_site2893],9.85 ± 0.13
17,GGAATATATATACATACACACATATATATATATATA [CACACA_site1666],10.2 ± 0.44
18,AAAAATAATTATTCGTGTACAAAAAAAAAAATATAA [XGTACX_site439],11.3 ± 0.7
19,ATAAATATACATTATACCGACCATGTGGATATTATA [XGTACX_negctrl_site241],10.2 ± 0.11
20,TTTTATTATAATAATTGTACAAAAATTATTTAATAT [XGTACX_site6054],10.9 ± 0.5
21,TTAATTTATTATCTTTGTACACAATTAAAAAAAAAA [XGTACX_site3469],11.3 ± 0.99
22,AGAAAAAAAAAAAAAAAAATATATATATATATATAT [TGCATGCA_negctrl_site411],9.79 ± 0.46
23,GTATATATATACCATTGTACTTTCGTAAAAATATTT [XGTACX_site4846],11.1 ± 0.78
24,AAAAAAAAAAAAAAAACACACATACACGCACGCACA [CACACA_site7569],10.7 ± 0.27
25,AAAAAAAAAAAAAAAAGTACAAGCATTGCGTTTTAA [XGTACX_site6075],11.5 ± 0.83
